Data: PubChem BioAssay AID493208 (National Center for Advancing Translational Sciences (NCATS), 2011)
Out of some 44,000 compounds screened, about 340 (0.77%) were called active. About 5% were inconclusive and are not listed. Calls follow the shape of the dose curve; as a rule, active = well fitted inhibition curve with a large enough effect; inconclusive = small, poorly fitted or top-dose-only effect; inactive = flat fitted curve, though single readings scatter. The list shows a part of the results.

test: Acumen qHTS Assay for Inhibitors of the mTORC1 Signaling Pathway in MEF (Tsc2-/-, p53-/-) Cells: Sytravon; conditions: phospho-rpS6 immunofluorescence/PI, 24 h; series mostly up to 38.3 µM; activity change, negative = inhibition: at the top concentration;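 also: plate controls were DMSO for no effect and rapamycin for full effect; nearly all actives have a fitted effect of over 50% in size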
Summary of the method: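 Tsc2-/-, p53-/- mouse embryonic fibroblasts (empty-vector line) exposed to compound 24 hrs at 37 C, fixed, immunostained for phospho-rpS6 and counterstained with propidium iodide. Acumen laser scanning gives % positive cells from Alexa 488/PI ratio, thresholded using 7.5 nM rapamycin; PI count gives viability.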

SMILES | activity change, negative = inhibition
O=C(Nc1nnc(S(=O)(=O)N2CCN(c3ccc(F)cc3)CC2)s1)c1ccc(Cl)cc1 | inactive: 6.76%
Cc1ccc(C(=O)Nc2ccc(C(=O)OCc3cc(=O)n4ccsc4n3)cc2)cc1 | inactive: 0%
COC(=O)c1ccc(NC(=O)Cn2nc(C(=O)Nc3ccc(C)cc3)ccc2=O)cc1 | inactive: 5.45%
COc1ccccc1N1CCN(c2ncnc3c2nc2n3CCCC2)CC1 | inactive: -19.8%
Cc1ccc(NC(=O)Cn2c(CCC(=O)O)ccc2-c2ccc(Cl)cc2)cc1 | inactive: 0.628%
Cc1ccc(Cn2cc(CCC(=O)NCc3ccccc3F)c3ccccc32)cc1 | inactive: -1.38%
CCN(CC)S(=O)(=O)c1ccc2c(c1)N(CC(=O)N(C)Cc1ccccc1)C(=O)CO2 | inactive: 1.53%
O=C(CNC(=O)c1ccc(Cl)cc1)OCc1cc(=O)n2ccsc2n1 | inactive: -9.39%
COc1ccc(-c2[nH]c3c(c2-c2c(-n4cccc4)n(C)c(=O)n(C)c2=O)c(=O)n(C)c(=O)n3C)cc1 | inactive: -1.22%
COc1cccc(CNC(=O)C(NS(=O)(=O)c2ccc3c(c2)oc(=O)n3C)C(C)C)c1 (configuration not stated) | inactive: -2.17%
COc1ccc(O)c(C2Nc3ccccc3-n3c(-c4ccccc4)c4c(=O)n(C)c(=O)n(C)c4c32)c1 (configuration not stated) | inactive: -15.2%
COc1ccc(S(=O)(=O)Nc2cccc(-c3ccc(N4CCCCCC4)nn3)c2)cc1 | inactive: 0.653%
Cc1c(C(=O)OCC2CCCCC2)[nH]c2c1C(=O)CC(c1ccc(Cl)cc1)C2 (configuration not stated) | inactive: 1.44%
Cc1cccc(NC(=O)CSc2nc(C3CCCC3)nc3c2c(=O)n(C)c(=O)n3C)c1C | inactive: -5.51%
Cc1nnsc1C(=O)Oc1ccc(C(C)C)cc1 | inactive: 0.586%
COc1ccc2c(c1)-c1nc(NC(=O)c3ccccc3F)sc1CC2 | inactive: -2.65%
CCN(CC)C(=O)c1sc2c(c1C)c(=O)n(-c1ccc(C)c(C)c1)c(=O)n2Cc1cc(=O)n2c(C)cccc2n1 | inactive: -3.75%
CCn1c(=O)cc(OCC(=O)NCc2ccccc2Cl)c2ccccc21 | inactive: 2.8%
COc1ccc(CNC(=O)CSc2ncc3c(n2)-c2cc(Cl)ccc2N(Cc2ccccc2)S3(=O)=O)cc1OC | inactive: 0.43%
COc1ccccc1NC(=O)Cn1c(=O)n(CCc2ccccc2)c(=O)c2c3c(sc21)CN(C(C)=O)CC3 | inactive: 0.714%
Cc1ccc(Cn2cc(/C=C(/C#N)C(=O)Nc3cccc(Cl)c3)c3ccccc32)cc1 | inactive: -4.24%
O=C(c1ccccc1)n1nc(-c2ccco2)nc1NCc1cccs1 | inactive: 1.96%
CCC(=O)OCc1cnc(C)c2oc(=O)c(C(=O)Nc3ccccc3C(F)(F)F)cc12 | inactive: 11.1%

SMILES | activity change, negative = inhibition
Cc1ccc(S(=O)(=O)N2CCc3cc(C(=O)Nc4ccc(C)c(C)c4)ccc32)cc1 | inactive: 1.57%
O=c1cc(-c2ccccc2)nc2cc(-c3ccc(F)cc3)[nH]n12 | inactive: -24.6%
Cc1cccc(N(C)C(=O)CN(C)S(=O)(=O)c2ccc3[nH]c4c(c3c2)CCCC4)c1 | inactive: -2.91%
COc1cc2ccccc2cc1C(=O)Nc1cc(-c2nc3ccccc3o2)ccc1C | inactive: -2.38%
COc1ccc(CC(=O)Nc2c(C(=O)Nc3ccc(F)cc3)oc3ccccc23)cc1OC | inactive: -19.1%
COc1ccc(OC)c(CCNC(=O)CN2C(=O)COc3ccc(S(=O)(=O)N4CCC(C)CC4)cc32)c1 | inactive: -6.69%
CCCCNc1nc(Oc2ccc(OCCC)nn2)nc(N(C)C)n1 | inactive: -21.7%
O=C(CCSCc1ccccc1F)N1CCN(c2ccc(Cl)cc2)CC1 | inactive: 6.13%
Cc1nn(-c2ccc(N3CCCC3)nn2)c(C)c1CCC(=O)NCc1ccccc1F | inactive: -10.1%
COc1ccc(-c2nc3ccccc3o2)cc1NC(=O)CSc1ccc(Cl)cc1 | inactive: 7.43%
CCOc1ccccc1NC(=O)c1sc2nc(-c3ccc(OC)cc3)ccc2c1N | inactive: -0.347%
CCCN1CCN(CCNC(=O)Nc2cc(C)ccc2OC)CC1 | inactive: -1.24%
COc1cc2c(C(=O)Nc3ccc(C)cc3Br)cn(C)c(=O)c2cc1OC | inactive: -13.8%
CCOC(=O)c1ccc(NC2=CC(c3ccc(O)c(OCC)c3)N(c3ccc(C(=O)OCC)cc3)C2=O)cc1 (configuration not stated) | inactive: 1.77%
CCC1CCCCN1CCCNC(=O)c1c(O)nc2c(C)cccn2c1=O (configuration not stated) | inactive: 2.44%
COc1ccc(-n2c(/C=C/c3cccc4ccccc34)nc3ccccc3c2=O)cc1Cl | inactive: 7.21%
Cc1ccccc1C(=O)Nc1nnc(S(=O)(=O)N(C)Cc2ccc(Cl)cc2)s1 | inactive: 1.25%
N#Cc1ccccc1Cn1c(=O)n(CCCCC(=O)NCc2ccc3c(c2)OCO3)c(=O)c2ccccc21 | inactive: 1.82%
Cc1ccc(CNC(=O)c2nc(-c3ccc(Cl)cc3)n3c2CCCCC3)cc1 | inactive: -1.1%
O=C(Cc1ccc(F)cc1)N1CCC(c2nc3c(nnn3Cc3ccc(F)cc3)c(=O)[nH]2)CC1 | inactive: 1.49%
COc1ccc(OCC(=O)Nc2ccc(O)c(-c3nc4ccccc4s3)c2)cc1 | inactive: 6.04%
O=C(NCCSCc1ccccc1Cl)C1CCN(S(=O)(=O)Cc2ccccc2)CC1 | inactive: -10.5%
CCCn1c(=O)c2sccc2n2c(CCCC(=O)Nc3ccccc3OCC)nnc12 | inactive: -0.163%

SMILES | activity change, negative = inhibition
Cc1ccc(CN(C(=O)COc2ccc(C(C)C)cc2)C2CCS(=O)(=O)C2)o1 (configuration not stated) | inactive: -4.97%
COc1ccc(CC(=O)N2CC(=O)Nc3ccc(Br)cc3C2c2ccc(F)cc2)cc1 (configuration not stated) | inactive: -0.87%
Cc1cccc(NC(=O)c2sc3nc4c(cc3c2N)CN(Cc2ccccc2)CC4)c1 | inactive: -6.51%
COc1ccccc1NC(=O)c1oc2ccccc2c1NC(=O)c1ccccc1C(F)(F)F | inactive: -12.7%
CCOc1ccccc1NC(=O)C(C)Sc1nc(-c2ccccc2)c(C#N)c(=O)[nH]1 (configuration not stated) | inactive: -1.34%
Cc1nc2sc(C(=O)Nc3ccc(F)cc3)c(N)c2c(-c2ccc(Br)cc2)c1C(=O)Nc1ccc(Cl)cc1 | inactive: 0%
CCc1cccc(NC(=O)c2cnc(SC)nc2-c2ccccc2)c1 | inactive: -7.31%
COC(=O)c1ccc(NC(=O)CC2C(=O)N(c3ccc(F)cc3)C(=O)N2Cc2ccc(OC)cc2)cc1 (configuration not stated) | inactive: -3.77%
Cc1cc2nc(-c3ccc(OCc4ccc(F)cc4)cc3)cc(C(F)(F)F)n2n1 | inactive: -8.21%
O=C(Nc1ccc(NC(=O)c2cccs2)cc1)c1cccc(Br)c1 | inactive: -5.12%
Cc1ccc(C)c(Cn2c(=O)n(Cc3ccc4c(c3)OCO4)c(=O)c3oc4ccccc4c32)c1 | inactive: -0.847%
CCCCOc1ccc(C(=O)NCCc2sc(-c3cccc(F)c3)nc2C)cc1 | inactive: 0.247%
COc1ccc(-c2cn3nc(N4CCC(C(=O)Nc5cccc(OC)c5)CC4)sc3n2)cc1 | inactive: 5.11%
CCOc1ccc(Sc2cc(C(=O)NC(C)CC)c3ccccc3n2)cc1 (configuration not stated) | inactive: -2.54%
COc1ccc(N2CCN(S(=O)(=O)c3ccc(OC)c(-c4noc(C)n4)c3)CC2)cc1 | inactive: 0.21%
O=C(Cn1ncc2c3ccccc3n(Cc3ccc(Cl)cc3)c2c1=O)NCc1cccs1 | inactive: 3.98%
Cc1cc(NC(=O)CSc2nc3c([nH]c4ccccc43)c(=O)n2-c2ccccc2)no1 | inactive: -0.967%
O=c1cc(-c2ccc(F)cc2)nc(SCc2nc(-c3cccc(Cl)c3)no2)[nH]1 | inactive: -10.1%
O=C(C1CCCN(S(=O)(=O)c2ccc(Br)s2)C1)N1CCN(c2ccc(F)cc2)CC1 (configuration not stated) | inactive: 5.23%
CCc1ccc(NC(=O)c2ccc(F)c(S(=O)(=O)N(C)C3CCCCC3)c2)cc1 | inactive: -24.3%
CCc1ccc(NC(=O)CSc2nccn2-c2cccc(C)c2C)cc1 | inactive: 1.81%
CC1CN(C(=O)N2CCC(C(=O)NCCC3=CCCCC3)CC2)c2cc(Cl)ccc2O1 (configuration not stated) | inactive: 2.33%
Cc1ccc(C2CC(=O)N(Cc3ccccc3)c3c2c(C)nn3-c2nc(C)cc(C)n2)cc1 (configuration not stated) | inactive: -13.3%

SMILES | activity change, negative = inhibition
COc1ccc(NC(=O)CSc2nc3ccncc3[nH]2)c(OC)c1 | inactive: -13.4%
Cc1ccc(C)n1-c1c(C(=O)NCCCN2CCN(c3ccc(F)cc3)CC2)sc2ncccc12 | inactive: -5.02%
O=C(C1CCN(S(=O)(=O)Cc2ccccc2)CC1)N1CCN(c2ccc(F)cc2)CC1 | inactive: -0.384%
Cc1ccc2c(=O)cc(C(=O)Nc3sc4c(c3C(N)=O)CCCC4)oc2c1 | inactive: -3.37%
Cc1ccc(Cl)cc1-n1ncc2c(NCCCn3ccnc3)ncnc21 | inactive: 5.69%
COc1ccc(C2C(=O)N(C3CCCCC3)CC(=O)N2CCc2ccc(OC)c(OC)c2)cc1 (configuration not stated) | inactive: 8.8%
Cc1ccc(C)c(CN2C(=O)C3(c4ccccc42)N(c2cccc(C(F)(F)F)c2)C(=O)CS3(=O)=O)c1 (configuration not stated) | inactive: -15.7%
Cc1ccc2oc(-c3cc(NC(=O)c4ccc5c(c4)OCCO5)cc(C)c3O)nc2c1 | inactive: 5.94%
CCOC(=O)c1cc(C)n(CC2CCC(C(=O)Nc3ccc(OCC)cc3)CC2)c1C (configuration not stated) | inactive: 3.27%
CCC(C(=O)N1CCN(c2ccccc2F)CC1)n1nc(C)c2sc3ccccc3c2c1=O (configuration not stated) | inactive: -5.22%
COc1cc(CN(C(=O)c2cccc(Cl)c2)c2ccccn2)cc(OC)c1OC | inactive: -0.775%
COc1ccc(NC(=O)CCn2nc(-c3ccccc3OC)c3c(C)cc(C)nc32)cc1 | inactive: 0.624%
Cc1ccc(Cl)cc1N1CCN(C(=O)c2cccn3c(=O)c4cc(Cl)ccc4nc23)CC1 | inactive: -2.13%
Cc1ccc(-n2nc(C(=O)Nc3ccc(Cl)cn3)c3c4ccccc4n(C)c3c2=O)cc1 | inactive: 0.419%
CC1=C(C(=O)OCC(C)C)C(c2ccc(OCc3ccccc3)cc2)N2C(=O)CCSC2=N1 (configuration not stated) | inactive: -27.7%
COc1ccc(NC(=O)CSc2nc(-c3ccco3)cc(C(F)(F)F)n2)c(OC)c1 | inactive: -0.771%
CCCCN(C)C(=O)C1CCC(CNS(=O)(=O)c2ccc3c(c2)CC(C)N3C(C)=O)CC1 (configuration not stated) | inactive: -8.75%
CCN(CC)C(=O)Cn1c(SCCOc2ccc(Cl)cc2)nc2ccccc21 | inactive: 3.64%
CCCc1nn2c(=O)cc(COc3ccc(/C=C(\C#N)C(=O)Nc4ccc(F)cc4)cc3)nc2s1 | inactive: 1.25%
CC(=O)N1c2ccccc2C(=O)C1N1CCN(c2ccc(F)cc2)CC1 (configuration not stated) | inactive: -5.31%
COc1ccc(NC(=O)c2ccc(CNS(=O)(=O)c3ccc4c(c3)C(C)(C)C(=O)N4C)cc2)cc1 | inactive: -10.8%
COc1cccc(-n2c(=O)c3c(C)c(C(=O)N(C)C)sc3n(CC(=O)Nc3ccc(C)cc3Cl)c2=O)c1 | inactive: 0.0276%
O=C(Nc1ccc2c(c1)N(C1CCCC1)C(=O)c1ccccc1S2)c1cccc(F)c1 | inactive: -2.63%
